The target of the assay is T1, tdTomato-CIB2 (mouse, UniProt Q9Z309 1-187).
T1 construct: Expressed in HEK293 cells; used as lysate in co-IP; also called tdTomato tagged CIB2; tdTomato-C1-mCIB2; not shown: tdTomato tag (ptdTomato Vector-C1)
T1 sequence: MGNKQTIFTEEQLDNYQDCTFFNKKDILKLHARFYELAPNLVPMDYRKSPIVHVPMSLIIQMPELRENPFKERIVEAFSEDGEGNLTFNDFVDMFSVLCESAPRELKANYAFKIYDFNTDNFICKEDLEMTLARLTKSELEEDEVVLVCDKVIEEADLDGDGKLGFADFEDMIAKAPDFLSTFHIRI
The assay is described as follows: co-IP from HEK293 lysates, immunoblot.

B1: HA-GST-Rheb Q64L variant (enzyme)
chain: not shown
notes: also called GTP mimetic; not shown: HA tag and GST tag
For the molecule B1, the binding result is “binds”.

The record behind these values is patent US20210290727A1 (UNIVERSITY OF MARYLAND BALTIMORE, published 2021).
